# Measurements taken from the supplement of paper PMC8728848.
# This is one part of the list.
# B1: Dectin-1 (Mus musculus), Q6QLQ4 (protein)
# chain: GHNSGRNPEEKDNFLSRNKENHKPTESSLDEKVAPSKASQTTGGFSQPCLPNWIMHGKSCYLFSFSGNSWYGSKRHCSQLGAHLLKIDNSKEFEFIESQTSSHRINAFWIGLSRNQSEGPWFWEDGSAFFPNSFQVRNTAPQESLLHNCVWIHGSEVYNQICNTSSYSICEKEL
# Key:
# Test in all cases: glycan array binding signal (z-score within array); higher = stronger binding
# Settings in all cases: glycan notation: IUPAC condensed, linker removed
# [1] = target: Gal6S(b1-3)[Fuc(a1-4)]GlcNAc(b1-3)Gal(b1-4)Glc
# Procedure, shortened: (§1)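 Glycan array binding is given as a within-array Z-score, which can be read as non-binding when negative. The arrays, 3228 of them, came from the Consortium for Functional Glycomics database and were retained only where the protein sequence was available. Z-scores were averaged across arrays of the same protein sequence at different concentrations or buffers and across linkers.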
# [2] = target: GalNAc(a1-3)Gal(b1-4)Glc
# Procedure, shortened: as §1
# [3] = target: GalNAc(a1-3)GalNAc
# Procedure, shortened: as §1
# [4] = target: GalNAc(b1-4)Gal(b1-4)Glc
# Procedure, shortened: as §1
# [5] = target: GalNAc(b1-4)Gal3S(b1-4)Glc
# Procedure, shortened: as §1
# [6] = target: GalNAc3S(b1-4)Gal3S(b1-4)Glc
# Procedure, shortened: as §1
# [7] = target: Glc(a1-2)Glc
# Procedure, shortened: as §1
# [8] = target: Glc(a1-2)Glc(a1-2)Glc
# Procedure, shortened: as §1
# [9] = target: Glc(a1-2)Glc(a1-2)Glc(a1-2)Glc
# Procedure, shortened: as §1
# [10] = target: Glc(a1-2)Glc(a1-2)Glc(a1-2)Glc(a1-2)Glc
# Procedure, shortened: as §1
# [11] = target: Glc(a1-2)Glc(a1-2)Glc(a1-2)Glc(a1-2)Glc(a1-2)Glc
# Procedure, shortened: as §1
# [12] = target: Glc(a1-2)Glc(a1-2)Glc(a1-2)Glc(a1-2)Glc(a1-2)Glc(a1-2)Glc
# Procedure, shortened: as §1
# [13] = target: Glc(a1-2)Glc(a1-2)Glc(a1-2)Glc(a1-2)Glc(a1-2)Glc(a1-2)Glc(a1-2)Glc
# Procedure, shortened: as §1
# [14] = target: Glc(a1-2)Glc(a1-2)Glc(a1-2)Glc(a1-2)Glc(a1-2)Glc(a1-2)Glc(a1-2)Glc(a1-2)Glc
# Procedure, shortened: as §1
# [15] = target: Glc(a1-3)Glc
# Procedure, shortened: as §1
# [16] = target: Glc(a1-3)Glc(a1-3)Glc
# Procedure, shortened: as §1
# [17] = target: Glc(a1-3)Glc(a1-3)Glc(a1-3)Glc
# Procedure, shortened: as §1
# [18] = target: Glc(a1-3)Glc(a1-3)Glc(a1-3)Glc(a1-3)Glc
# Procedure, shortened: as §1
# [19] = target: Glc(a1-3)Glc(a1-3)Glc(a1-3)Glc(a1-3)Glc(a1-3)Glc
# Procedure, shortened: as §1
# [20] = target: Glc(a1-3)Glc(a1-3)Glc(a1-3)Glc(a1-3)Glc(a1-3)Glc(a1-3)Glc
# Procedure, shortened: as §1
# [21] = target: Glc(a1-3)Glc(a1-3)Glc(a1-3)Glc(a1-3)Glc(a1-3)Glc(a1-3)Glc(a1-3)Glc
# Procedure, shortened: as §1
# [22] = target: Glc(a1-3)Glc(a1-3)Glc(a1-3)Glc(a1-3)Glc(a1-3)Glc(a1-3)Glc(a1-3)Glc(a1-3)Glc
# Procedure, shortened: as §1
# [23] = target: Glc(a1-3)Glc(a1-3)Glc(a1-3)Glc(a1-3)Glc(a1-3)Glc(a1-3)Glc(a1-3)Glc(a1-3)Glc(a1-3)Glc
# Procedure, shortened: as §1
# [24] = target: Glc(a1-3)Glc(a1-3)Glc(a1-3)Glc(a1-3)Glc(a1-3)Glc(a1-3)Glc(a1-3)Glc(a1-3)Glc(a1-3)Glc(a1-3)Glc
# Procedure, shortened: as §1
# [25] = target: Glc(a1-3)Glc(a1-3)Glc(a1-3)Glc(a1-3)Glc(a1-3)Glc(a1-3)Glc(a1-3)Glc(a1-3)Glc(a1-3)Glc(a1-3)Glc(a1-3)Glc
# Procedure, shortened: as §1
# [26] = target: Glc(a1-3)Glc(a1-3)Glc(a1-3)Glc(a1-3)Glc(a1-3)Glc(a1-3)Glc(a1-3)Glc(a1-3)Glc(a1-3)Glc(a1-3)Glc(a1-3)Glc(a1-3)Glc
# Procedure, shortened: as §1
# [27] = target: Glc(a1-3)Man(a1-2)Man(a1-2)Man(a1-3)[Man(a1-2)Man(a1-3)[Man(a1-2)Man(a1-6)]Man(a1-6)]Man(b1-4)GlcNAc(b1-4)GlcNAc
# Procedure, shortened: as §1
# [28] = target: Glc(a1-4)Glc
# Procedure, shortened: as §1
# [29] = target: Glc(a1-4)Glc(a1-4)Glc
# Procedure, shortened: as §1
# [30] = target: Glc(a1-4)Glc(a1-4)Glc(a1-4)Glc
# Procedure, shortened: as §1
# [31] = target: Glc(a1-4)Glc(a1-4)Glc(a1-4)Glc(a1-4)Glc
# Procedure, shortened: as §1
# [32] = target: Glc(a1-4)Glc(a1-4)Glc(a1-4)Glc(a1-4)Glc(a1-4)Glc
# Procedure, shortened: as §1
# [33] = target: Glc(a1-4)Glc(a1-4)Glc(a1-4)Glc(a1-4)Glc(a1-4)Glc(a1-4)Glc
# Procedure, shortened: as §1
# [34] = target: Glc(a1-4)Glc(a1-4)Glc(a1-4)Glc(a1-4)Glc(a1-4)Glc(a1-4)Glc(a1-4)Glc
# Procedure, shortened: as §1
# [35] = target: Glc(a1-4)Glc(a1-4)Glc(a1-4)Glc(a1-4)Glc(a1-4)Glc(a1-4)Glc(a1-4)Glc(a1-4)Glc
# Procedure, shortened: as §1
# [36] = target: Glc(a1-4)Glc(a1-4)Glc(a1-4)Glc(a1-4)Glc(a1-4)Glc(a1-4)Glc(a1-4)Glc(a1-4)Glc(a1-4)Glc
# Procedure, shortened: as §1
# [37] = target: Glc(a1-4)Glc(a1-4)Glc(a1-4)Glc(a1-4)Glc(a1-4)Glc(a1-4)Glc(a1-4)Glc(a1-4)Glc(a1-4)Glc(a1-4)Glc
# Procedure, shortened: as §1
# [38] = target: Glc(a1-4)Glc(a1-4)Glc(a1-4)Glc(a1-4)Glc(a1-4)Glc(a1-4)Glc(a1-4)Glc(a1-4)Glc(a1-4)Glc(a1-4)Glc(a1-4)Glc
# Procedure, shortened: as §1
# [39] = target: Glc(a1-4)Glc(a1-4)Glc(a1-4)Glc(a1-4)Glc(a1-4)Glc(a1-4)Glc(a1-4)Glc(a1-4)Glc(a1-4)Glc(a1-4)Glc(a1-4)Glc(a1-4)Glc
# Procedure, shortened: as §1
# [40] = target: Glc(a1-4)Glc(a1-6)Glc
# Procedure, shortened: as §1
# [41] = target: Glc(a1-6)Glc
# Procedure, shortened: as §1
# [42] = target: Glc(a1-6)Glc(a1-4)Glc
# Procedure, shortened: as §1
# [43] = target: Glc(a1-6)Glc(a1-4)Glc(a1-4)Glc
# Procedure, shortened: as §1
# [44] = target: Glc(a1-6)Glc(a1-4)Glc(a1-4)Glc(a1-6)Glc(a1-4)Glc(a1-4)Glc
# Procedure, shortened: as §1
# [45] = target: Glc(a1-6)Glc(a1-6)Glc
# Procedure, shortened: as §1
binder,measurement,setting,value
B1,glycan array binding signal (z-score),[1],0.021
same,glycan array binding signal (z-score),[2],-0.091
same,glycan array binding signal (z-score),[3],-0.089
same,glycan array binding signal (z-score),[4],0.051
same,glycan array binding signal (z-score),[5],-0.074
same,glycan array binding signal (z-score),[6],-0.082
same,glycan array binding signal (z-score),[7],-0.093
same,glycan array binding signal (z-score),[8],-0.135
same,glycan array binding signal (z-score),[9],-0.135
same,glycan array binding signal (z-score),[10],-0.135
same,glycan array binding signal (z-score),[11],-0.135
same,glycan array binding signal (z-score),[12],-0.135
same,glycan array binding signal (z-score),[13],-0.135
same,glycan array binding signal (z-score),[14],-0.135
same,glycan array binding signal (z-score),[15],-0.135
same,glycan array binding signal (z-score),[16],-0.135
same,glycan array binding signal (z-score),[17],-0.135
same,glycan array binding signal (z-score),[18],-0.135
same,glycan array binding signal (z-score),[19],-0.135
same,glycan array binding signal (z-score),[20],-0.135
same,glycan array binding signal (z-score),[21],-0.135
same,glycan array binding signal (z-score),[22],-0.135
same,glycan array binding signal (z-score),[23],-0.135
same,glycan array binding signal (z-score),[24],-0.135
same,glycan array binding signal (z-score),[25],-0.135
same,glycan array binding signal (z-score),[26],-0.135
same,glycan array binding signal (z-score),[27],-0.04
same,glycan array binding signal (z-score),[28],-0.098
same,glycan array binding signal (z-score),[29],-0.111
same,glycan array binding signal (z-score),[30],-0.113
same,glycan array binding signal (z-score),[31],-0.102
same,glycan array binding signal (z-score),[32],-0.135
same,glycan array binding signal (z-score),[33],-0.135
same,glycan array binding signal (z-score),[34],-0.135
same,glycan array binding signal (z-score),[35],-0.135
same,glycan array binding signal (z-score),[36],-0.135
same,glycan array binding signal (z-score),[37],-0.135
same,glycan array binding signal (z-score),[38],-0.135
same,glycan array binding signal (z-score),[39],-0.135
same,glycan array binding signal (z-score),[40],0.413
same,glycan array binding signal (z-score),[41],-0.095
same,glycan array binding signal (z-score),[42],-0.135
same,glycan array binding signal (z-score),[43],-0.086
same,glycan array binding signal (z-score),[44],-0.135
same,glycan array binding signal (z-score),[45],-0.113
